Results are given in words; binding and its absence hold for the method and conditions named. Binding seen in cells or lysates may run through a third protein. Some results given as binding are weak or reduced against the parent protein; the word gives no strength.

By UniProt entry, the sequences of proteins in these tests, tags left out. Where a name states a change or a piece, a line headed by the entry shows the natural chain unless it says otherwise. Residues count along the entry.
UniProt Q96D31: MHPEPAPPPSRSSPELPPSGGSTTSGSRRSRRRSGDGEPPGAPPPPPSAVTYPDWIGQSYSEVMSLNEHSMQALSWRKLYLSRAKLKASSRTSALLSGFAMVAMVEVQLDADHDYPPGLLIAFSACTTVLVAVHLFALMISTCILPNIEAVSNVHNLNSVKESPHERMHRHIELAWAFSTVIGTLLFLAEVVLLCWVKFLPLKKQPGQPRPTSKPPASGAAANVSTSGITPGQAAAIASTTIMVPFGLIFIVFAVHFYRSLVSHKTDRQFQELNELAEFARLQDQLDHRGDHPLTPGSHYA
ORAI1β-CFP: residues 64-301 of Q96D31
UniProt P24588: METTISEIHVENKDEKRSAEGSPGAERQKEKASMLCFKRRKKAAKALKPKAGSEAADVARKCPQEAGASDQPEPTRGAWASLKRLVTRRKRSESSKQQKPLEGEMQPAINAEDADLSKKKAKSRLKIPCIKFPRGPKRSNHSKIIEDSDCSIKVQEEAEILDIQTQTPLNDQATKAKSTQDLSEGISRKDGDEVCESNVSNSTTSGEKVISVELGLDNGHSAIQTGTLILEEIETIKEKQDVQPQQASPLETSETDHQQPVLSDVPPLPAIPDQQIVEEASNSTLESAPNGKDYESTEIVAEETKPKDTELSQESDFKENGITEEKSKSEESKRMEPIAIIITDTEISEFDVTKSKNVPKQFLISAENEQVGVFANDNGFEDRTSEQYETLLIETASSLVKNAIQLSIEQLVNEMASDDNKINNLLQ
UniProt P40146: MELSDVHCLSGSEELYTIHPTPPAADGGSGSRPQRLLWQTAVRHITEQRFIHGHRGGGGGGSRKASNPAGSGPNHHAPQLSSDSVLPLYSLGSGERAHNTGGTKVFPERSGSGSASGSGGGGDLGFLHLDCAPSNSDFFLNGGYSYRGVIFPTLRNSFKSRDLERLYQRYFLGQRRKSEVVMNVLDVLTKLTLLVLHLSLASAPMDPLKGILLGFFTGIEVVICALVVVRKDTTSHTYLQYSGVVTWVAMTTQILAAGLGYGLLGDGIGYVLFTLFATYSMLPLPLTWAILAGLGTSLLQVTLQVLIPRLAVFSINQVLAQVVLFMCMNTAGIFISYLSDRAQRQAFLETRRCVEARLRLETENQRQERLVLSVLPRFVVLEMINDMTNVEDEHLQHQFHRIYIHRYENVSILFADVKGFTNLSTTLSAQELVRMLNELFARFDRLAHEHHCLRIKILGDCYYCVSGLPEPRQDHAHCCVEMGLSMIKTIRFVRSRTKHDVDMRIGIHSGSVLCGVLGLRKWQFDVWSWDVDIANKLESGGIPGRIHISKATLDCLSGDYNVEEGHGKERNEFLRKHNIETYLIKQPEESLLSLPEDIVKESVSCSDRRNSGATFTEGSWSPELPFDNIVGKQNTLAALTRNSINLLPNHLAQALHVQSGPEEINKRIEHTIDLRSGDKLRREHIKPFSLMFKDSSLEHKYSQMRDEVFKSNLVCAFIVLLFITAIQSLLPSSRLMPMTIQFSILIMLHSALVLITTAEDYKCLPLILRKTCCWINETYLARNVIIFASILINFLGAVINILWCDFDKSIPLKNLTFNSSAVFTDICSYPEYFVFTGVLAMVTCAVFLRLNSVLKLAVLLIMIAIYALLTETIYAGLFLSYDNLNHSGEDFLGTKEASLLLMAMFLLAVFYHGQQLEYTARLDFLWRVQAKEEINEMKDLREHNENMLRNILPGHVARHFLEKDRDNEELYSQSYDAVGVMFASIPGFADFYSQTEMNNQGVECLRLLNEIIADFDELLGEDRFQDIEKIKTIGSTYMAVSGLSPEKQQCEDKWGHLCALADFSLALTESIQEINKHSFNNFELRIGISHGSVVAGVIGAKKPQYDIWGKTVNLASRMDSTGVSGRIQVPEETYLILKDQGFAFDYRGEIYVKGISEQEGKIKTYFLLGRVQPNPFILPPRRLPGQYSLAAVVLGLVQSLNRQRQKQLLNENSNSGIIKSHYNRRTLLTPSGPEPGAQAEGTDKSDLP

The target in one assay is eYFP-ORAI1 (UniProt Q96D31). The assay is described as follows: FRET or BRET; E-FRET microscopy in cells with N-terminally tagged YFP-ORAI1/β and CFP-AC8/AKAP; room temperature; regions close to the plasma membrane; images every 10 min for 40 min, before and after carbachol (500 µM). A general note: Bioluminescence resonance energy transfer reports proximity on the nanometre scale.

Another assay concerns the target eYFP-ORAI1β (UniProt Q96D31). The description is as above.
In another assay the target is ORAI1-CFP (UniProt Q96D31). As to the kind of experiment: co-IP; called a pull-down assay by the paper; Dynabeads coated with mouse anti-GFP antibody precipitate ORAI1-CFP or ORAI1β-CFP from RIPA lysates of ORAI1-KO cells; untagged AC8 detected by western blot with anti-AC8; all steps at 4 °C. (In western blotting, separated proteins are transferred to a membrane and probed.)

In another assay the target is ORAI1β-CFP (UniProt Q96D31). The description is as above.

As for CFP-AKAP79 (from UniProt P24588 1-427), the results for the binding result with eYFP-ORAI1 and in the assay with eYFP-ORAI1β were “binds” and “no binding”, respectively. Regarding “CFP-AC8 (from UniProt P40146 1-1248) (enzyme)”, the binding entry with eYFP-ORAI1 was “binds”.

With “adenylyl cyclase 8 (AC8), untagged (from UniProt P40146 1-1248) (enzyme)”, the binding result with ORAI1-CFP was “binds”; with ORAI1β-CFP, “no binding”.

(Values after article PMC6488650.)
